In article PMC2844433:
Results are given in words; binding and its absence hold for the method and conditions named. Binding seen in cells or lysates may run through a third protein. Some results given as binding are weak or reduced against the parent protein; the word gives no strength. For some assays here: Sequences can lack the tags named with a protein. One block for each substance: values may come before it.

By UniProt entry, the sequences of proteins in these tests, tags left out. Where a name states a change or a piece, a line headed by the entry shows the natural chain unless it says otherwise. Residues count along the entry.
UniProt P06748: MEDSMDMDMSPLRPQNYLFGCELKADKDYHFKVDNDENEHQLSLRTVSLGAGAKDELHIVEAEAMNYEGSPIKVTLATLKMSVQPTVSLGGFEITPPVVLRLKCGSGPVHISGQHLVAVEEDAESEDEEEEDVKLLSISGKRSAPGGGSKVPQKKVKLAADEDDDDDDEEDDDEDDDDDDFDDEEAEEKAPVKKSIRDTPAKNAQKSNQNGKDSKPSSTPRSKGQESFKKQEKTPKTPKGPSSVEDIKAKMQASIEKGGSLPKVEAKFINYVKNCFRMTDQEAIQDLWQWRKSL
GST-NPM/B23-(aa 1–220): residues 1-220 of P06748
GST-NPM/B23-(aa 1–120): residues 1-120 of P06748
GST-NPM/B23-(aa 120–294): residues 120-294 of P06748
GST-NPM/B23-(aa 220–294): residues 220-294 of P06748

Columns and labels:
[1] = target: T1, Myc-Plk2 KD (UniProt Q9NYY3); experiment: co-IP; 293T cells transfected with Flag-NPM/B23 and Myc-Plk2 KD or with Myc-Plk2 KD alone; anti-Flag or anti-Myc immunoprecipitation; lysis buffer 40 mM Tris-HCl pH 7.5, 0.5% NP-40, 150 mM NaCl; Western blot
T1 sequence: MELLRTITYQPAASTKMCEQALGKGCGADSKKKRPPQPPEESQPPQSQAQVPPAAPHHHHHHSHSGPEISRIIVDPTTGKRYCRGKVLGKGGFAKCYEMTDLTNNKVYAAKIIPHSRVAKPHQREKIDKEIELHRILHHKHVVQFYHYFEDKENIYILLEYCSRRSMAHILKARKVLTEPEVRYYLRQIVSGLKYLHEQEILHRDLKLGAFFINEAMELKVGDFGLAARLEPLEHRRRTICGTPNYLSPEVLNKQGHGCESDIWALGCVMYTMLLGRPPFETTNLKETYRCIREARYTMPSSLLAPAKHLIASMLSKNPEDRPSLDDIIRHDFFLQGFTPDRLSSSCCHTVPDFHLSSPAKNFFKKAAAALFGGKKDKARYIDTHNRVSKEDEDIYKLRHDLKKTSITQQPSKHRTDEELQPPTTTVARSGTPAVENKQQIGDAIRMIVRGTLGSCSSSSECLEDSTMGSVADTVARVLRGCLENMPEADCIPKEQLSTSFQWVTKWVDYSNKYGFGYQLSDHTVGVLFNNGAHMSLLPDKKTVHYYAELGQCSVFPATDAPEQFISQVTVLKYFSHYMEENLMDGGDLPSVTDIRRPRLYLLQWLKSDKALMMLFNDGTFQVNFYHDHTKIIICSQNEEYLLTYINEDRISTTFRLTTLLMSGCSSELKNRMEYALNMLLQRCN

[2] = target: Zz-tagged kinase active Plk2 (Plk2 WT) (UniProt Q9NYY3); experiment: pull-down; Zz-tagged Plk2 WT or KD bound to IgG sepharose, incubated with 10 mg HeLa extract for 3 h at 4°C; eluted with 200 mM NaCl, then 1 M NaCl; Western blot; only the target purified
[3] = target: T2, Zz-tagged Plk2 KD (kinase dead) (UniProt Q9NYY3); experiment: as above
T2 sequence: T1 sequence

[4] = target: Polo-like kinase 2 (Plk2), endogenous in HeLa cells (human (endogenous in HeLa)) (UniProt Q9NYY3); experiment: co-IP; endogenous Plk2 immunoprecipitated from HeLa lysates with specific antibodies; immunoblot with NPM/B23 antibodies; random IgG as control
[5] = target: GST-NPM/B23-(aa 120–294) (UniProt P06748); experiment: pull-down; 25 µg GST-NPM/B23 truncated versions bound to glutathione agarose, incubated with 8 µl in vitro translated [35S]-methionine-labeled HA-Plk2 in PBS with 0.05% NP-40 for 2 h at 4°C; autoradiography; only the target purified
[6] = target: GST-NPM/B23-(aa 1–220) (UniProt P06748); experiment: as above
[7] = target: GST-NPM/B23-(aa 1–120) (UniProt P06748); experiment: as above
[8] = target: GST-NPM/B23-(aa 220–294) (UniProt P06748); experiment: as above

- binding [1]: binds
Substance: NPM/B23 (Nucleophosmin), endogenous in 293T cells (from UniProt P06748 1-294)

- binding [2]: binds
- binding [3]: binds
- binding [4]: binds
Substance: NPM/B23 (Nucleophosmin), endogenous in HeLa cells (from UniProt P06748 1-294)

- binding [5]: binds
- binding [6]: no binding
- binding [7]: no binding
- binding [8]: binds
Substance: in vitro translated [35S]-HA-Plk2 (from UniProt Q9NYY3 1-685) (enzyme)
